Measurements as given in paper PMC11714167.
Results are given in words; binding and its absence hold for the method and conditions named. In cells and extracts the contact can be indirect. Some results given as binding are weak or reduced against the parent protein; the word gives no strength. For some of these results: Sequences can lack the tags named with a protein.

By UniProt entry, the sequences of proteins in these tests, tags left out. Where a name states a change or a piece, a line headed by the entry shows the natural chain unless it says otherwise. Residues count along the entry.
UniProt P19474: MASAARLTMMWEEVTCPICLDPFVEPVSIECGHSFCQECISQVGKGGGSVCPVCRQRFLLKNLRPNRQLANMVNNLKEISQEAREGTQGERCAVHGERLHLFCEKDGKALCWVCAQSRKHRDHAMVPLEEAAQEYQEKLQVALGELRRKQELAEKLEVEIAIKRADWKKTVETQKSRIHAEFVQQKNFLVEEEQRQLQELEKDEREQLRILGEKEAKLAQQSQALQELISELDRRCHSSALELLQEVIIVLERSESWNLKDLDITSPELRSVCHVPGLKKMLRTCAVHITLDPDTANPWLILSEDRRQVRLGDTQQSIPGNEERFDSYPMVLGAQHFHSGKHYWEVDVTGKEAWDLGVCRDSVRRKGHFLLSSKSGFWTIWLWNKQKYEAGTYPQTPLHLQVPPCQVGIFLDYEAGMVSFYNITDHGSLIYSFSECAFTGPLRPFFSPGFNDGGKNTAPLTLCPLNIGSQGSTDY
UniProt P30530: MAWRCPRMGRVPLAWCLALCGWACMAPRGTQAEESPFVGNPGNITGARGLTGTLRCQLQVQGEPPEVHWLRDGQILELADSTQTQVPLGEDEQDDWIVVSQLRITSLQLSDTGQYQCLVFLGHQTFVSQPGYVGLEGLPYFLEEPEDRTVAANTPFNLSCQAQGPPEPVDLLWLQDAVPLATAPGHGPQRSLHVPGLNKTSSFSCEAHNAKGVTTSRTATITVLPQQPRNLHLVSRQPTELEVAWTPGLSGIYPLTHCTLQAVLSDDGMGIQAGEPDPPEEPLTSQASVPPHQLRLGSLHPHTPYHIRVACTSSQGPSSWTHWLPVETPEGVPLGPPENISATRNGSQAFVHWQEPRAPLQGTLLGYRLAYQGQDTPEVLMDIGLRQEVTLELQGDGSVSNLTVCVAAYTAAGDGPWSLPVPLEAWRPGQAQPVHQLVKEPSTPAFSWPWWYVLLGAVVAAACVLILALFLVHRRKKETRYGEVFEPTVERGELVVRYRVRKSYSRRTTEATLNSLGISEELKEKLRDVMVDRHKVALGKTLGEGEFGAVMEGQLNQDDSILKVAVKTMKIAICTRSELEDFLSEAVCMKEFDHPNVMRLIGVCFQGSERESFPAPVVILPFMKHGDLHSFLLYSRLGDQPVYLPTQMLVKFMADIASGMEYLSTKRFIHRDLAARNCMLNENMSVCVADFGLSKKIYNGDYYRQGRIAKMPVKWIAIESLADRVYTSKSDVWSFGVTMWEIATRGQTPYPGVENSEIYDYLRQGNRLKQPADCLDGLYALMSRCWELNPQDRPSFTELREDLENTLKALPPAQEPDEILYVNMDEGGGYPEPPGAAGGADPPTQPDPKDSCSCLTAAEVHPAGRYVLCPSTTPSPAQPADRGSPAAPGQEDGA
AXL (endogenous) (human (endogenous in 786-O, 769-P, Caki-1)): residues 26-894 of P30530
UniProt O14964: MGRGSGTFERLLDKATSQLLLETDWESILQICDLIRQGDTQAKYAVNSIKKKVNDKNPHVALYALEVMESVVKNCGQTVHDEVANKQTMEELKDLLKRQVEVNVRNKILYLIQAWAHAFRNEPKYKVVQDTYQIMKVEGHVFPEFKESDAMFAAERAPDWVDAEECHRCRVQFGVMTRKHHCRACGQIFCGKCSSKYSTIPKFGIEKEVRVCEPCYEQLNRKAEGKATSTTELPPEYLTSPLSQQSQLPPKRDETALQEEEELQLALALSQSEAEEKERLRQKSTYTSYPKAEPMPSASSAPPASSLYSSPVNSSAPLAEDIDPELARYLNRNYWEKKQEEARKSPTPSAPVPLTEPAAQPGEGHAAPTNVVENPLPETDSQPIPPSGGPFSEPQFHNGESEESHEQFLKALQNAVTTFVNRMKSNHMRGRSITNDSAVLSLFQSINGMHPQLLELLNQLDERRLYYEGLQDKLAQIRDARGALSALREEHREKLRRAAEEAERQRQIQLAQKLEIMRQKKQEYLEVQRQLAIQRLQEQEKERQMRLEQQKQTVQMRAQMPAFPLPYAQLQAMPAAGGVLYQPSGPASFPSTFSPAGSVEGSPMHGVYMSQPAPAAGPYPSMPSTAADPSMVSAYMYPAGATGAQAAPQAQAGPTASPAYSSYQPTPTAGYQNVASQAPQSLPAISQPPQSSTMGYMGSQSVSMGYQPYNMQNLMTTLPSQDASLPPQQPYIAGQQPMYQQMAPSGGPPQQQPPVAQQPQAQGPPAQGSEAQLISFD
UniProt Q9Y6K9: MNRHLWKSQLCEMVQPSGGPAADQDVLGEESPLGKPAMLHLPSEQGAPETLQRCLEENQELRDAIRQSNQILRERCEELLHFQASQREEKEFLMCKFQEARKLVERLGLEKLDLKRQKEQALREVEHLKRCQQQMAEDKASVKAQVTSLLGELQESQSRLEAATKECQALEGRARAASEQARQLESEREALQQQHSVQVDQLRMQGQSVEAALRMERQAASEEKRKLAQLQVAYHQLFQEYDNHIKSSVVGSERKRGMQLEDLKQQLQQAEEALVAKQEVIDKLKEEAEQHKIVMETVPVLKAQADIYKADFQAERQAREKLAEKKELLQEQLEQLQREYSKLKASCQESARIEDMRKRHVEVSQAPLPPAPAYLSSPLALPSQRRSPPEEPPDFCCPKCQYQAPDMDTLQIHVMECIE
UniProt Q92783: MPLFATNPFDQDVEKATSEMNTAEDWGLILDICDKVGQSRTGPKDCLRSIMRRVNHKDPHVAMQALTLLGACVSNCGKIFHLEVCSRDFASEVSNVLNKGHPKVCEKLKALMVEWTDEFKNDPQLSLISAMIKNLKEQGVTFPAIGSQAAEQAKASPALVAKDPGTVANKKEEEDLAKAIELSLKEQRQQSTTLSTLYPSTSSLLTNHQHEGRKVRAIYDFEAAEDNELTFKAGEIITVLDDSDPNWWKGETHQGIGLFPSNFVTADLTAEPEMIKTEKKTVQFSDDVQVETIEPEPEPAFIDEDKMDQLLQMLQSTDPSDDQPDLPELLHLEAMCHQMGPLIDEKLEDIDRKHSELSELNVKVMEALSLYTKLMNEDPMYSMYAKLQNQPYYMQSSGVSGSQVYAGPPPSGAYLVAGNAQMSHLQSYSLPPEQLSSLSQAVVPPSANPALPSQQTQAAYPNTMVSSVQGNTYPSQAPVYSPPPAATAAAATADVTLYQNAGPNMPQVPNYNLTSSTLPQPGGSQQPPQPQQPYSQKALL
UniProt O00463: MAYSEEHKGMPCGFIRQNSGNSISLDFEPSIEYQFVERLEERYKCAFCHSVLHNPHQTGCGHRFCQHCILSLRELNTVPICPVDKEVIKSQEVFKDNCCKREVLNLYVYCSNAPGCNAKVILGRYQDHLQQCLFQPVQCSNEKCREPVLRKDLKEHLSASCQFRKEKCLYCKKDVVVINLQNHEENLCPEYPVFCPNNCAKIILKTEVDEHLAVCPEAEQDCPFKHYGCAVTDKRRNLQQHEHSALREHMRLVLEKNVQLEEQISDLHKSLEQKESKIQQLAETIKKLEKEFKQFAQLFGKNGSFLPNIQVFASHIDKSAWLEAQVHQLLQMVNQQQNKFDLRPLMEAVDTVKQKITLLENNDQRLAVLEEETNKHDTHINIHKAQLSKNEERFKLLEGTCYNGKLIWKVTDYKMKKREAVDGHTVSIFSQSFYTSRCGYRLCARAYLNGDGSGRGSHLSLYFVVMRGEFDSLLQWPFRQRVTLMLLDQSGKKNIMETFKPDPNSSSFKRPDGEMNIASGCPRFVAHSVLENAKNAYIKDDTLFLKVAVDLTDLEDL

What was measured:
[1] = molecular target: GST-TRIM21 (human) (UniProt P19474); assay: pull-down; purified GST or GST-tagged recombinant protein bound to GST beads, incubated with KIRC (786-O) cell lysates; washed five times with GST buffer (1 mM EDTA, pH 8.0 Tris-HCl, 200 mM NaCl, 1% Triton X-100); immunoblotting; only the target purified
[2] = molecular target: T1, STAM Binding Protein Like 1 (endogenous) (human (endogenous in 786-O, 769-P, Caki-1)) (UniProt Q96FJ0); assay: co-IP; endogenous proteins; whole-cell extracts of KIRC cell lines (786-O, 769-P, Caki-1) immunoprecipitated with specific antibody or control IgG, protein A/G beads, washed four times with lysis buffer (20 mM Tris-HCl, 125 mM NaCl, 5 mM MgCl2, 0.2 mM EDTA, 0.1% NP-40); STAMBPL1/AXL also after Gas6 (500 ng/mL, 6 h), unaffected; AXL with HRS, STAM1, STAM2 stronger with K63-ubiquitin overexpression, STAMBPL1 KD or TRIM21 overexpression
T1 sequence: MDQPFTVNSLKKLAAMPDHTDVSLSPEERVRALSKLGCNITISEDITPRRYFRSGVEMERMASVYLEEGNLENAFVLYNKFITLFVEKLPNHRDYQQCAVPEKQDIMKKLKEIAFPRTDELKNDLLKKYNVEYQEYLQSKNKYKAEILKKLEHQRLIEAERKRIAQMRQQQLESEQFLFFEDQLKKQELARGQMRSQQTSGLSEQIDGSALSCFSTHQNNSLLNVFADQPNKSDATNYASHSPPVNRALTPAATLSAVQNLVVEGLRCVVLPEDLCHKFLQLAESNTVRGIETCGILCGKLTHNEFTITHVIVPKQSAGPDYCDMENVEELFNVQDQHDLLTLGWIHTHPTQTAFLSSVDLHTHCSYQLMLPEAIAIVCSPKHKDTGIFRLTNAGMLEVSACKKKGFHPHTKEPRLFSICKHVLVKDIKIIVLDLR

[3] = molecular target: full length TRIM21 (tagged, HEK293T) (human) (UniProt P19474); assay: co-IP; HEK293T cells co-transfected with tagged constructs (full length or deletion mutants); IP with Flag antibody and protein A/G beads; immunoblotting
[4] = molecular target: T2, STAMBPL1-USP8_dimer (human) (UniProt Q96FJ0); assay: co-IP; AXL deletion mutants (AXL-ΔIC, AXL-ΔEC+TM) with STAMBPL1-USP8_dimer (Figure S12B) or the TRIM21 PRY-SPRY domain (Figure S16B); cells and tags not given
T2 sequence: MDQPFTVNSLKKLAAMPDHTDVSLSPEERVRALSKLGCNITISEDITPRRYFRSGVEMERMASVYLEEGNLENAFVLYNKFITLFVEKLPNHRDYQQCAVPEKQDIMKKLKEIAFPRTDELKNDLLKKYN

[5] = molecular target: T3, GST-STAMBPL1 (human) (UniProt Q96FJ0); assay: pull-down; purified GST or GST-tagged recombinant protein bound to GST beads, incubated with KIRC (786-O) cell lysates; washed five times with GST buffer (1 mM EDTA, pH 8.0 Tris-HCl, 200 mM NaCl, 1% Triton X-100); immunoblotting; only the target purified
T3 sequence: T1 sequence

[6] = molecular target: AXL (exogenous, Figure S10B) (human) (UniProt P30530); assay: co-IP; exogenous co-IP of AXL with HRS, STAM1 and STAM2 (Figure S10B); cells and tags not given
[7] = molecular target: T4, STAMBPL1-ΔUJ_linker (human) (UniProt Q96FJ0); assay: co-IP; HEK293T cells co-transfected with tagged constructs (full length or deletion mutants); IP with Flag antibody and protein A/G beads; immunoblotting
T4 sequence: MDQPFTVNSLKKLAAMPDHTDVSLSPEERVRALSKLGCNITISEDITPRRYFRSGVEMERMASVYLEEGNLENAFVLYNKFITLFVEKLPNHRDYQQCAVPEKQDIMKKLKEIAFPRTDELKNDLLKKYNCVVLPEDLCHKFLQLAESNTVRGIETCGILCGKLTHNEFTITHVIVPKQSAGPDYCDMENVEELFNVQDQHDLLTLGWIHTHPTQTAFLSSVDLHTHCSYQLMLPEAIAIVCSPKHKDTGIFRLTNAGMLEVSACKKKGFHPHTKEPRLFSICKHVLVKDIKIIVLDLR

[8] = molecular target: T5, STAMBPL1-ΔJAB (human) (UniProt Q96FJ0); assay: as above
T5 sequence: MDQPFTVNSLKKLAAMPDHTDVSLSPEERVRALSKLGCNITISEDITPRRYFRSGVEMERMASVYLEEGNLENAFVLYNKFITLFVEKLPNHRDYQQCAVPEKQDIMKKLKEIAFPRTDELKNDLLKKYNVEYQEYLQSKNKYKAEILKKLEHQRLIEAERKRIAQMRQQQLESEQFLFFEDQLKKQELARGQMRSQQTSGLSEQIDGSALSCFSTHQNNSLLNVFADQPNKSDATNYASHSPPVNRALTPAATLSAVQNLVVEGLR

[9] = molecular target: T6, Flag-tagged full length STAMBPL1 (HEK293T) (human) (UniProt Q96FJ0); assay: as above
T6 sequence: T1 sequence

[10] = molecular target: AXL (endogenous) (human (endogenous in 786-O, 769-P, Caki-1)) (UniProt P30530); assay: co-IP; endogenous proteins; whole-cell extracts of KIRC cell lines (786-O, 769-P, Caki-1) immunoprecipitated with specific antibody or control IgG, protein A/G beads, washed four times with lysis buffer (20 mM Tris-HCl, 125 mM NaCl, 5 mM MgCl2, 0.2 mM EDTA, 0.1% NP-40); STAMBPL1/AXL also after Gas6 (500 ng/mL, 6 h), unaffected; AXL with HRS, STAM1, STAM2 stronger with K63-ubiquitin overexpression, STAMBPL1 KD or TRIM21 overexpression
[11] = molecular target: AXL (endogenous) (human (endogenous in 786-O, 769-P, Caki-1)) (UniProt P30530); assay: co-IP; co-IP of AXL with NF-κB signalling proteins (Figure S24A,B) and of AKT with IKKα (Figure S24D); cells not given
[12] = molecular target: AXL (endogenous) (human (endogenous in 786-O, 769-P, Caki-1)) (UniProt P30530); assay: co-IP; co-IP of TRIM21 with endogenous AXL in 786-O cells transfected with empty vector or Flag-tagged STAMBPL1 vector; conversely STAMBPL1 KD (Figure S18F)

For “AXL (endogenous) (from UniProt P30530 26-894) (receptor)”, the binding [1] was “binds” and the binding [2] was “binds”.
For “AXL (tagged, full length, HEK293T, Figure 4G) (from UniProt P30530 26-894) (receptor)”, the binding [3] was “binds”.
For “AXL-ΔIC (from UniProt P30530 26-473) (domain or fragment)”, the binding [4] was “no binding”.
“Flag-AXL (ectopic in 786-O cells) (from UniProt P30530 26-894) (receptor)” was tested, and the binding [5] was “binds”.
With Flag-HRS (from UniProt O14964 1-777) the binding [6] was “binds”.
“HA-AXL (HEK293T) (from UniProt P30530 26-894) (receptor)” was tested, and the binding [7] was “binds”, the binding [8] was “binds” and the binding [9] was “binds”.
“HRS (endogenous) (from UniProt O14964 1-777)” was tested, and the binding [10] was “binds”.
For NEMO (from UniProt Q9Y6K9 1-419), the binding [11] was “no binding”.
In the case of “STAM1 (endogenous) (from UniProt Q92783 1-540)”, the binding [10] is reported as “binds”.
“STAM1 (exogenous) (from UniProt Q92783 1-540)” was tested, and the binding [6] was “binds”.
In the case of TRAF5 (from UniProt O00463 1-557), the binding [11] is reported as “no binding”.
“TRIM21 (endogenous) (from UniProt P19474 1-475) (enzyme)” was tested, and the binding [12] was “binds” and the binding [10] was “binds”.
